Molecular target: T1, recombinant fusion protein comprising human IL-2R beta subunit extracellular domain and mouse IgG2a Fc (human, UniProt P14784 27-240)
T1 construct: human IL-2 receptor beta subunit (CD122), extracellular domain; also called IL-2R beta/mFc; IL-2R beta ECD/mouse IgG2a Fc
T1 sequence (looked up): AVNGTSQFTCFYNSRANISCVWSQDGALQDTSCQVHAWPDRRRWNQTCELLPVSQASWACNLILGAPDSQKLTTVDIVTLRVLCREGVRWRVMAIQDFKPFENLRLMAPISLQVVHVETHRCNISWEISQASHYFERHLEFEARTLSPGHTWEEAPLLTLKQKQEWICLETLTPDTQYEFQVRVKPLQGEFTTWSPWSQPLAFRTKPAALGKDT
Experiment: ELISA; polyvinyl chloride plates coated with IL-2R beta ECD/mouse IgG2a Fc at 10 µg/mL in PBS; Fc-fusion proteins diluted in M-PBS, 1 h at RT; detected with anti-human IgG-HRP
Settings: both partners purified

B1: fusion protein containing I92L-hIL-2 (K35E, human IgG1 Fc) (Fc fusion)
chain: not shown
notes: human interleukin-2; the first two aa (Ala-Pro) are present in the Fc constructs; also called I92L-containing fusion protein; source: HEK-293T adapted to suspension, transient transfection, purified from supernatant (protein A)
Does B1 bind?
Result: binds

Source: article PMC10412584, “Molecular reshaping of phage-displayed Interleukin-2 at beta chain receptor interface to obtain potent super-agonists with improved developability profiles” (Communications Biology, 2023)
